In PubChem BioAssay AID1476 (National Center for Advancing Translational Sciences (NCATS), 2009):
In all, about 200,000 compounds went through this assay and about 4,500 (2.2%) were called active. This list was built around the results that the source calls inconclusive (neither active nor inactive); the mix of calls is not that of the screen. The call rests on the fitted dose curve; in most records, active means well fitted inhibition curve with a large enough effect; inconclusive means small, poorly fitted or top-dose-only effect, or effect the other way; inactive means flat fitted curve, though single readings scatter. Potencies of inconclusive entries are doubtful fits and often do not repeat.

These compounds were tested against Cruzipain (Trypanosoma cruzi) (UniProt P25779) (assay: qHTS Assay for Promiscuous and Specific Inhibitors of Cruzain (without detergent)). Conditions: purified cruzain, Z-FR-AMC fluorescence, no detergent.
Sequence of UniProt P25779 (P25779 whole entry, looked up): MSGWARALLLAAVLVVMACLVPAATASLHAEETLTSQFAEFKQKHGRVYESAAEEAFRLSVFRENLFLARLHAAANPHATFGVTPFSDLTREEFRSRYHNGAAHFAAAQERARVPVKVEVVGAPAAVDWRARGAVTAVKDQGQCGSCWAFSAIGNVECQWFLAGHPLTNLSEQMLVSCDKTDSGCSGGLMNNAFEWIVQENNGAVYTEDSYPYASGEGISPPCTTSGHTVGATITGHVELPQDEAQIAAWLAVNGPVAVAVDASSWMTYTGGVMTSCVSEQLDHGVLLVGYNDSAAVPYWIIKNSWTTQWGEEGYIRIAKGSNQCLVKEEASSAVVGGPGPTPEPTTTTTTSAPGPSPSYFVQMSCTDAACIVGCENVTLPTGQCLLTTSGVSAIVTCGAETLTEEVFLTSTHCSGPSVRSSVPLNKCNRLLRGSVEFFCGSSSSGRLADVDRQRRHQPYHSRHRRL
Summary of the method: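 Detergent-free condition (0.00005% Triton X-100) in acetate buffer pH 5.5 with DTT. 1.5 nM enzyme and compound were pre-mixed 15 min, then 2 uM Z-FR-AMC substrate added; reaction progress from fluorescence change between first and third reads (60 s).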
Further: nearly all actives have a fitted effect of over 40% in size.
Potency means the concentration at half of the fitted maximal effect; tags describe the fitted curve by direction and shape.
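Wherever max response, negative = inhibition is given: plate controls were enzyme without inhibitor for no effect and buffer without enzyme for full effect.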

Structure (SMILES)	Potency	max response, negative = inhibition
COc1ccc(-c2nnc(SC(C)C(=O)Nc3nccs3)n2Cc2ccccc2)cc1OC (stereo not given)	inconclusive: 31.6 µM [activator, single point]	–
COc1ccc(CN2CCN(c3cc(C)nc4c5c(C)cc(C)nc5nn34)CC2)cc1F	inconclusive: 39.8 µM [inhibitor, single point]	–
CC(=O)Nc1sc(N/N=C\c2ccccc2)nc1-c1cccs1	inconclusive: 31.6 µM [inhibitor, single point]	–
CC(=O)N1CCOc2cc(S(=O)(=O)Nc3cc(C(F)(F)F)ccc3Cl)c(C)cc21	–	inconclusive: 32.2% [activator]
COc1cc(S(=O)(=O)N2CCOCC2)ccc1NC(=O)c1cc2c(s1)CCC2	inconclusive: 39.8 µM [activator, single point]	–
O=C(NCc1ccc2c(c1)OCO2)C1CCN(C(=O)Nc2ccc(Cl)cc2)CC1	inconclusive: 39.8 µM [inhibitor, single point]	–
Oc1ccc(-c2cn3c(n2)SCC3)cc1	–	inactive: 2.84%
CCOc1cc(C)c(C(C)C)cc1S(=O)(=O)n1ccnc1CC	inconclusive: 31.6 µM [activator, single point]	–
CC(C)c1nnc(NC(=O)CCC(=O)NCc2cccs2)s1	–	inactive: -2.45%
O=C(NNC(=S)NC(=O)c1cccs1)c1ccc(NC(=O)c2ccccc2)cc1	active: 20 µM	–
CCOc1ccc(NC(=O)C2CCN(S(=O)(=O)c3ccc4c(c3)oc(=O)n4C)CC2)cc1	inconclusive: 3.98 µM [activator, single point]	–
O=C(CSc1nnc(-c2ccncc2)n1-c1ccccc1)Nc1ccc(Br)cc1	–	inactive: -1.01%
CCc1nnc(NS(=O)(=O)c2ccc(N=Cc3c(C)[nH]n(-c4ccc(C)cc4)c3=O)cc2)s1	inconclusive: 31.6 µM [activator, single point]	–
CC(=O)N1CCC2(CCCN(c3cccc(-c4ccccc4)c3)C2)CC1	inconclusive: 31.6 µM [activator, single point]	–
Cc1ccccc1N(C(=O)Cc1ccsc1)C(C(=O)NC1CCCCC1)c1ccc(F)cc1 (stereo not given)	inconclusive: 5.01 µM [inhibitor, single point]	–
COc1ccccc1CNC(=O)C1CCN(Cc2cc3ccccc3n2Cc2cccc(C)c2)CC1	–	inactive: -13.2%
O=C(C[n+]1cc(-c2ccc(Cl)c(Cl)c2)n2c1CCC2)N1c2ccccc2Sc2ccccc21	inconclusive: 39.8 µM [inhibitor, single point]	–
COc1cc2c(cc1NC(=O)CSc1nc3cc(Cl)ccc3s1)oc1ccccc12	active: 7.94 µM	–
CC(C)CNC(=O)c1c(-c2ccccc2)c(-c2ccccc2)nn(C)c1=O	–	inactive: 1.12%
COc1ccc2c(c1)CC(NC(=O)Nc1ccc(NC(C)=O)cc1)CO2 (stereo not given)	–	inactive: 1.4%
COc1ccc(NC(=O)c2c3c(nc4ccccc24)CCC3)cc1	inconclusive: 39.8 µM [inhibitor, single point]	–
Cc1ccc(NC(=O)C2CCN(C(=O)c3cnn(-c4ccccc4)c3-n3cccc3)CC2)cc1	inconclusive: 31.6 µM [activator, single point]	–

Structure (SMILES)	Potency	max response, negative = inhibition
CCC1CN(C(=O)N2CCC(C(=O)N3CCN(c4ccc(F)cc4)CC3)CC2)c2ccccc2O1 (stereo not given)	inconclusive: 1.26 µM [inhibitor, single point]	–
O=C(Nc1ccccc1N1CCN(C(=O)c2ccc(Cl)cc2)CC1)c1ccc(Br)cc1	inconclusive: 39.8 µM [inhibitor, single point]	–
COC(=O)Cn1c(C(=O)N2CCCC2)cc2c1C[C@H]1CN(C(=O)c3ccccc3)[C@@](Cc3ccccc3)(C(=O)OC)[C@@H]21	inconclusive: 20 µM [activator, partial curve]	–
Cc1ccc(CSC2=Nc3ccccc3C3=NC(CC(=O)NCc4ccco4)C(=O)N23)cc1 (stereo not given)	inconclusive: 39.8 µM [activator, single point]	–
COc1ccc(C(=O)Nc2cc(C)ccc2NC(=O)COc2ccccc2)cc1	–	inactive: 2.68%
O=C1/C(=C\c2ccc(-c3ccccc3[N+](=O)[O-])o2)C(c2ccccc2)=NN1c1ccccc1	inconclusive: 39.8 µM [inhibitor, single point]	–
Cc1ccccc1OCC(=O)Nc1c(C)ccc2nsnc12	–	inactive: -6.42%
Cc1ccc(S(=O)(=O)N2CCN(c3cc4c(cc3[N+](=O)[O-])n(C)c(=O)n4C)CC2)cc1	inconclusive: 39.8 µM [activator, single point]	–
COCCNC(=O)c1ccc2c(c1)N(Cc1ccc(C(F)(F)F)cc1)C(=O)c1ccccc1S2	inconclusive: 25.1 µM [activator, partial curve]	–
CCn1cc([N+](=O)[O-])c(C(=O)N2N=C(c3ccc(OC)cc3OC)CC2c2ccccc2O)n1 (stereo not given)	inconclusive: 39.8 µM [activator, single point]	–
Cc1ccc2nc(-c3ccc(NC(=O)CSc4ccccc4)cc3)[nH]c2c1	inconclusive: 39.8 µM [inhibitor, single point]	–
CCCCCn1c(=O)[nH]c2cc(C(=O)NCc3ccc(F)cc3)ccc2c1=O	–	inactive: -0.848%
Cc1cccc(OCCCSc2nc(-c3ccc(C(C)(C)C)cc3)nc3cc(=O)[nH]n23)c1C	active: 10 µM	–
O=C1C2C3C=CC(C3)C2C(=O)N1/N=C/c1cn(Cc2ccc(F)cc2)c2ccccc12 (stereo not given)	inconclusive: 39.8 µM [inhibitor, single point]	–
COC(=O)c1ccccc1NC(=O)CSc1nnc(C(C)NC(=O)c2ccc(Cl)cc2Cl)n1C (stereo not given)	inconclusive: 39.8 µM [activator, single point]	–
Cc1cc(C(=O)COC(=O)Cc2n[nH]c(=O)c3ccccc23)c(C)n1-c1ccc2c(c1)OCO2	active: 25.1 µM	–
O=C(c1ccc(CS(=O)c2ccccc2Cl)o1)N1CCN(c2cccc(C(F)(F)F)c2)CC1 (stereo not given)	inconclusive: 39.8 µM [activator, single point]	–
COc1ccc(S(=O)(=O)Nc2ccc3c(c2)OCO3)cc1Cl	active: 15.8 µM	–
Cc1ccc(CNC(=O)CN(C)S(=O)(=O)c2ccc(Br)s2)cc1	–	inactive: 1.33%
O=C(Nc1ccc(Cl)c(Cl)c1)c1cc(S(=O)(=O)N2CCN(c3cccc(Cl)c3)CC2)ccc1F	active: 3.16 µM	–
COc1ccc(-c2cn(-c3ccc(C)cc3)c(S(=O)(=O)CC(=O)Nc3ccccc3)n2)cc1	active: 20 µM	–
CC(C)c1nnc(NC(=O)CCC(=O)N2CCN(C3c4ccccc4-c4ccccc43)CC2)s1	inconclusive: 39.8 µM [activator, single point]	–

Structure (SMILES)	Potency	max response, negative = inhibition
O=C(COC(=O)c1cccc2ccccc12)Nc1ncc(C(F)(F)F)cc1Cl	–	inactive: -3.33%
Cc1cc(C)c(-c2cc(NC(=O)CSc3nncn3C)n(-c3ccccc3)n2)cc1C	inconclusive: 31.6 µM [activator, single point]	–
Cc1ccc(C(NC(=O)/C=C\c2ccc3c(c2)OCO3)C(=O)Nc2ccc3c(c2)OCO3)cc1 (stereo not given)	active: 31.6 µM	–
CCN(CCCNC(=O)c1cn(CC)c2ccc(S(=O)(=O)N(C)C)cc2c1=O)c1cccc(C)c1	inconclusive: 31.6 µM [activator, single point]	–
FC(F)(F)c1cc(NC(=S)Nc2ccc3cc4ccccc4cc3c2)cc(C(F)(F)F)c1	inconclusive: 31.6 µM [inhibitor, single point]	–
CCCC1CCC(C(=O)Nn2cnc3ccccc3c2=O)CC1 (stereo not given)	–	inactive: 15.7%
COCCNC(=O)[C@H](C)/C=C/C(NC(=O)OCc1ccccc1)c1ccc(C(=O)OC)cc1 (stereo not given in full)	inconclusive: 39.8 µM [activator, single point]	–
CCOC(=O)c1c(C)[nH]c(C)c1S(=O)(=O)NCC(=O)Nc1ccc(CC)cc1	–	inactive: 2.7%
CC1=C(C(=O)Nc2ccc(C)cc2Cl)C2(CCCCC2)OC1=O	–	inactive: -5.36%
CCCCCCCCCCOCCC(=O)O	–	inactive: -0.232%
Cc1ccc2nc(SCC(=O)N3c4ccccc4CC3C)c(C)cc2c1 (stereo not given)	inconclusive: 39.8 µM [inhibitor, single point]	–
Nc1nn(-c2ccccc2)nc1C(=O)OCc1ccccc1Br	–	inactive: 4.55%
COc1ccc(C(=O)Oc2ccc(/C=N/NC(=O)c3ccccc3OC)cc2[N+](=O)[O-])cc1	inconclusive: 39.8 µM [inhibitor, single point]	–
Cn1cc(-c2cc3n(n2)CCC(=O)N3CCCC(=O)Nc2ccccc2Cl)c2ccccc21	inconclusive: 25.1 µM [activator, partial curve]	–
COc1cc(-c2nc3ccc(Cl)cn3c2Nc2ccc3c(c2)OCO3)ccc1O	inconclusive: 31.6 µM [inhibitor, single point]	–
S=C(Cc1cccnc1)N1CCOCC1	inconclusive: 39.8 µM [inhibitor, single point]	–
Cc1ccccc1NC(=O)CCOc1ccccc1	–	inactive: -3.79%
COc1ccc(C(=O)Nc2cc(Cl)cc(Cl)c2)c(OC)n1	active: 12.6 µM	–
COc1ccc(/C=C/C(=O)NC(=S)Nc2ccc(S(=O)(=O)Nc3ccc(OC)nn3)cc2)cc1	inconclusive: 15.8 µM [inhibitor, partial curve]	–
CC(=O)N1CCN(c2ccc(NC(=O)c3cccc(OCc4ccccc4)c3)cc2)CC1	inconclusive: 31.6 µM [activator, single point]	–
O=C(O)c1ccc2c(c1)C(=O)N(NC(=O)c1ccccc1)C2=O	–	inactive: 0.331%
